# Measured values from PubChem BioAssay (NCATS).
# Values joined by “and” are separate entries in the source; they are usually repeats but may differ in a detail not shown here. Identical values can stand only once. The shares of active, inactive and inconclusive entries below differ from those in the screen. For some of these results: Potencies beside an inconclusive call are fits to weak or partial responses and may not hold up. For some of these results: “Side channel” marks fits to a control or component signal instead of the main read-out. More than one record can exist for a structure, and the calls need not agree. Active and inactive are the calls of the source. Unless noted, calls follow the shape of the dose curve; as a rule, active = well fitted curve in the direction sought with a large enough effect; inconclusive = small, poorly fitted or top-dose-only effect, or another doubt; inactive = no such curve, though single readings can be large; an effect the other way counts as inactive or inconclusive.
# Legend:
# [1] = qHTS Assay for Identification of Small Molecule Antagonists for NFkB Signaling Pathway (AID 895; active = well fitted inhibition curve with a large enough effect in the signal ratio, with a control signal flat, not every such curve was filed as active; inconclusive = small, poorly fitted or top-dose-only effect, or effect the other way, or a change in a side signal; the % refers to the signal ratio; also: potency is read from the fitted curve at half-maximal effect; as to activity change, negative = inhibition: % is scaled to controls: 0 for no effect and ±100 for the full control effect); settings: NFkB beta-lactamase reporter cells, FRET ratio 460/530, stimulated with 10 pM TNF alpha; activity change, negative = inhibition: at 38.3 µM (top of the series)
# Procedure, shortened: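 ME-180 NFkB-bla cells (beta-lactamase under NFkB response element), plated overnight, treated with compound then 10 pM TNF alpha (about EC50) for 5 hrs at 37 C. LiveBLAzer FRET read at 460/530 nm emission, 405 nm excitation.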
# [2] = qHTS Assay for Identification of Small Molecule Agonists for Hypoxia Response Element Signaling Pathway (AID 914; active = well fitted activation curve with a large enough effect in the signal ratio, with a control signal flat, not every such curve was filed as active; inconclusive = small, poorly fitted or top-dose-only effect, or effect the other way, or a change in a side signal; the % refers to the signal ratio; also: potency is read from the fitted curve at half-maximal effect; as to activation: top concentration of the series differs between compounds; % of control where 0% means no effect); settings: ME-180 HRE-bla reporter, beta-lactamase ratio, CoCl2, 17 h; activation: stronger effect = higher value
# Procedure, shortened: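 ME-180 cells carrying an HRE-driven beta-lactamase reporter were treated with compounds in a titration series plus an EC50 level of CoCl2 for 17 h at 37 degrees Celsius; CCF4 readout as the 460nm/530nm ratio gave AC50 values.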
# [3] = qHTS Assay for Identification of Small Molecule Agonists for Thrombopoietin (TPO) Signaling Pathway (AID 917); also: potency is read from the fitted curve at half-maximal effect
# Procedure, shortened: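 First, Ba/F3 cells with human TPO receptor were held overnight without IL-3. Next, compounds and TPO (26 pM final) were added. After 24 hrs at 37 C, luciferase detection reagent was added and luminescence measured following 10 min at room temperature.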
# [4] = qHTS Assay for Identification of Small Molecule Antagonists for Thrombopoietin (TPO) Signaling Pathway (AID 918); settings: TPO-dependent cell signaling reporter, antagonist mode; activity change, negative = inhibition: at 38.5 µM (top of the series); also: nearly all actives have a fitted effect of over 60% in size; also: potency is read from the fitted curve at half-maximal effect
# Procedure, shortened: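 Luminescence read-out: GPIIb-promoter luciferase in Ba/F3 cells carrying human TPO receptor. Compounds added with 26 pM TPO (EC50), 24 hrs, 37 C, 5% CO2; cells deprived of IL-3 overnight beforehand. Inhibition of signal scored.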
# [5] = target: Guanine nucleotide-binding protein G(i) subunit alpha-1 (Homo sapiens) (UniProt P63096); experiment: qHTS Assay for Inhibitors of RGS12 GoLoco Motif Activity (Green Fluorophore) (AID 879); settings: Galphai1/FITC-RGS12 GoLoco peptide, fluorescence polarization; also: potency is read from the fitted curve at half-maximal effect
# Chain of UniProt P63096 (P63096 whole entry, looked up): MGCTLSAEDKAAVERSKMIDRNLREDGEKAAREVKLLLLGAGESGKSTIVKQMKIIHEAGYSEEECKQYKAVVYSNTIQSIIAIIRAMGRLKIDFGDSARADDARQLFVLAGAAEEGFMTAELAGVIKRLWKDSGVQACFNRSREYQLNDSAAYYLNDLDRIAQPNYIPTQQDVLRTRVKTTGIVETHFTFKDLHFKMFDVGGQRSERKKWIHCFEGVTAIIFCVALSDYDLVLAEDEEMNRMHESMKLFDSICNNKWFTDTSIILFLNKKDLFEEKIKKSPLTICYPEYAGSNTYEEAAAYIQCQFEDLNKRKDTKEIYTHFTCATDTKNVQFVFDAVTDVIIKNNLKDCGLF
# Procedure, shortened: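 A drop in FITC polarization marked displacement of the FITC-tagged RGS12 GoLoco peptide (10 nM) from Gαi1 (50 nM). Compounds were incubated 10 min at room temperature in Tris pH 7.5 buffer containing 150 mM NaCl, 0.1 mM GDP and 0.05% NP40; unlabeled peptide titration served as control.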
# [6] = target: Cytochrome P450 2C9 (Homo sapiens) (UniProt P11712); experiment: qHTS Assay for Inhibitors and Substrates of Cytochrome P450 2C9 (AID 883); also: nearly all actives have a fitted effect of over 60% in size; also: potency is read from the fitted curve at half-maximal effect; as to activity change, negative = inhibition: % is scaled to controls: 0 for no effect and ±100 for the full control effect
# Chain of UniProt P11712 (P11712 whole entry, looked up): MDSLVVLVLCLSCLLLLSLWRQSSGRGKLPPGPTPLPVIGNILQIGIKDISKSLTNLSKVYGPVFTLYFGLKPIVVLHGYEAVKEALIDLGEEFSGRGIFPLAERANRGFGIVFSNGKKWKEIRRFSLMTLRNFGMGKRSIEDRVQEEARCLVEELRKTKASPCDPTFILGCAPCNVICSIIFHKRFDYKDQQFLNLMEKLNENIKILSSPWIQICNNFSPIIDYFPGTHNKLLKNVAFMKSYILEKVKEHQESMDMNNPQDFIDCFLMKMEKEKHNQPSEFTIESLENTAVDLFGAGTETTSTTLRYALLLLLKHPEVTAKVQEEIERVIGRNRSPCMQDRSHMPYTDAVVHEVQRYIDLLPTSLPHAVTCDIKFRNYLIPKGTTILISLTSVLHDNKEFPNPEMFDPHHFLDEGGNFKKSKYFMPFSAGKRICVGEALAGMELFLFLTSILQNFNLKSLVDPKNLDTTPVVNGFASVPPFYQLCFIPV
# Procedure, shortened: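 Human CYP2C9 (10nM) with Luciferin-H at 100uM (its KM) in 25mM KPO4; compound preincubated 10 min at 37C, then NADPH regeneration for 60 min at 37C. Luciferin read by luminescence after detection reagent; normalized to 57uM sulphaphenazole as full inhibition.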
# [7] = Cellular Toxicity (caspase-3) BJ (AID 658); settings: BJ fibroblasts, caspase-3 activation, luminescence; also: potency is read from the fitted curve at half-maximal effect
# Procedure, shortened: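 qHTS, BJ fibroblasts, 1000 cells/well; 5 hr preincubation, 16 hr compound, 37 °C; Caspase-Glo 3/7 reagent, 1 hr RT; luminescence. DMSO = 0%, 10 uM staurosporine = 100%. Hill-equation AC50.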
# [8] = Cellular Toxicity (caspase-3) SK-N-SH (AID 661); settings: SK-N-SH caspase-3 activation, qHTS, DMSO as zero, staurosporine as full; at 91.7 µM (top of the series);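 also: cells exposed to compound for 16 hours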
# Procedure, shortened: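 Luminescent Caspase-Glo 3/7 read-out after 16 hr compound exposure of SK-N-SH neuroblastoma cells at 37 °C. Signal increase normalized to DMSO (basal) and 10 uM staurosporine (100%); AC50 from Hill equation fits of qHTS concentration-response data.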
# [9] = Cellular Toxicity (caspase-3) Hek293 (AID 664); settings: HEK293 caspase-3 activation; caspase-3 activation: at 92.2 µM (top of the series), DMSO = 0%, 100 µM tamoxifen = 100%;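 also: potency is read from the fitted curve at half-maximal effect; cells exposed to compound for 16 h at 37 °C before readout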
# Procedure, shortened: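 Luminescent Caspase-Glo 3/7 readout (aminoluciferin release) in HEK293 cells after 16 h compound treatment, 37 °C. Normalization: DMSO = basal, 100 uM tamoxifen = 100% stimulation. Concentration-response fitted with standard Hill equation for AC50.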
# [10] = Cellular Toxicity (caspase-3) N2a (AID 665); settings: N2a cells, luminescence, normalized: DMSO 0%, 10 µM staurosporine 100%; at 92.2 µM (top of the series);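 also: compound exposure lasted 16 h at 37 °C before readout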
# Procedure, shortened: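 Luminescent Caspase-Glo 3/7 readout in N2a mouse neuroblastoma cells after 16 h compound exposure at 37 °C. Signal scaled to DMSO (basal) and 10 uM staurosporine (100%). Concentration-response fitted with Hill equation for AC50.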
# [11] = Cellular Toxicity (caspase-3) Renal Proximal Tubule (AID 667); settings: renal proximal tubule cells, primary cells freshly taken from rat, solvent-only wells 0%, staurosporine 100%; at 91.7 µM (top of the series);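 also: cells exposed to compound for 16 hours at 37 °C before detection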
# Procedure, shortened: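 Primary rat proximal tubule cells, 1000/well, 5 h plating at 37 °C, then compound 16 h at 37 °C. Caspase-Glo 3/7 reagent, 1 h RT, luminescence. Normalized to DMSO (basal) and 10 uM staurosporine (100%); Hill-fit AC50.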
# [12] = target: Cytochrome P450 2C19 (Homo sapiens) (UniProt P33261); experiment: qHTS Assay for Inhibitors and Substrates of Cytochrome P450 2C19 (AID 899); also: nearly all actives have a fitted effect of over 60% in size; also: potency is read from the fitted curve at half-maximal effect
# Chain of UniProt P33261 (P33261 whole entry, looked up): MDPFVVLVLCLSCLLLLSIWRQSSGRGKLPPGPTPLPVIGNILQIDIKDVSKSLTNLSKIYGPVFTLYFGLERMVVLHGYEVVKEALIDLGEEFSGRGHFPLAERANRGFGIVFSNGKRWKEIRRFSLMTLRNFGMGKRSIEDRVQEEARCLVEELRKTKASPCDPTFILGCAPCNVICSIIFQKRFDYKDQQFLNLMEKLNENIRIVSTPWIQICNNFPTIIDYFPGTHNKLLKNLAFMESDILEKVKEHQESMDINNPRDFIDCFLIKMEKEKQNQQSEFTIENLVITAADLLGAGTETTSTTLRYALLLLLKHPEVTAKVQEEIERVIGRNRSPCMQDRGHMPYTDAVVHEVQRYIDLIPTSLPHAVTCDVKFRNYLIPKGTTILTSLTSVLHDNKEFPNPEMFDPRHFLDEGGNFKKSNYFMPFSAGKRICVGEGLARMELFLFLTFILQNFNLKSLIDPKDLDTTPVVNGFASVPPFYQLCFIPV
# Procedure, shortened: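 5 nM human CYP2C19 with 10uM Luciferin-H EGE (at KM) in 50mM KPO4, compound preincubated 10 min at 37C, then NADPH regeneration for 60 min at 37C. Luciferin read by luminescence after detection reagent; normalized to 57uM ketoconazole as full inhibition.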
# [13] = target: Cytochrome P450 2D6 (Homo sapiens) (UniProt P10635); experiment: qHTS Assay for Inhibitors and Substrates of Cytochrome P450 2D6 (AID 891);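 also: luciferin methyl ether substrate demethylated by CYP2D6 with NADPH regeneration; nearly all actives have a fitted effect of over 60% in size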; also: potency is read from the fitted curve at half-maximal effect; as to activity change, negative = inhibition: top concentration of the series differs between compounds; % is scaled to controls: 0 for no effect and ±100 for the full control effect
# Chain of UniProt P10635 (P10635 whole entry, looked up): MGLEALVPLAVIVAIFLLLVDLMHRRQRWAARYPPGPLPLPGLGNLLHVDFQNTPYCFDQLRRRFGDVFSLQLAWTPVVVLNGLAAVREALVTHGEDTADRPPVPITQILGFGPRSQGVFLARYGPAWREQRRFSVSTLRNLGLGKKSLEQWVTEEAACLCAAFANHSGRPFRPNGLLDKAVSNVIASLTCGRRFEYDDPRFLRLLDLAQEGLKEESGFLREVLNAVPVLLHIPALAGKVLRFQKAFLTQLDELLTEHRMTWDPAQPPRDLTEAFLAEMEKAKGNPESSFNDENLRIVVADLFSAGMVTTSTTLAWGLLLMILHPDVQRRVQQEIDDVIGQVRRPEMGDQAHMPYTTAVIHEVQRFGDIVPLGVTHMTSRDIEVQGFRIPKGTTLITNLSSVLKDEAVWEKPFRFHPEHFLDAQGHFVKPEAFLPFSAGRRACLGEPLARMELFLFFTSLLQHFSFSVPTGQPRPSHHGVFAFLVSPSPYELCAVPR
# Procedure, shortened: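 Luminescent read-out of luciferin formed by 5 nM human CYP2D6 demethylating 30 uM Luciferin-ME EGE (Km level) over 60 min at room temperature after NADPH regeneration addition. Data normalized to full inhibition by 1.43 uM quinidine.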
# [14] = target: Cytochrome P450 3A4 (Homo sapiens) (UniProt P08684); experiment: qHTS Assay for Inhibitors and Substrates of Cytochrome P450 3A4 (AID 884); also: nearly all actives have a fitted effect of over 50% in size; also: potency is read from the fitted curve at half-maximal effect; as to activity change, negative = inhibition: % is scaled to controls: 0 for no effect and ±100 for the full control effect
# Chain of UniProt P08684 (P08684 whole entry, looked up): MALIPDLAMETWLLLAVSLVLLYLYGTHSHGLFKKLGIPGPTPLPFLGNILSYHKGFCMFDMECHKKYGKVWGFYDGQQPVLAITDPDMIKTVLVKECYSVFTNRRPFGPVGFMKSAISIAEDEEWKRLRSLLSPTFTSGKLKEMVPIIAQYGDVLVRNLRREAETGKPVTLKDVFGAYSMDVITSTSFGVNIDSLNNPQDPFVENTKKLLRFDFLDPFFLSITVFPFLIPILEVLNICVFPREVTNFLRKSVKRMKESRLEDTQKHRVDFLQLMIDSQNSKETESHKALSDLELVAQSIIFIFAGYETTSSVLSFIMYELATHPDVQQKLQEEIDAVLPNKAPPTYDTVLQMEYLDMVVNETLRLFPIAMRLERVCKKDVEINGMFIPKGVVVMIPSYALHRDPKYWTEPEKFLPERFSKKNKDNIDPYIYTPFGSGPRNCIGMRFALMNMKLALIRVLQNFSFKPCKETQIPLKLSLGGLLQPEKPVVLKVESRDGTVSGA
# Procedure, shortened: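 Luminescent readout of luciferin produced by CYP3A4 (20 nM) dealkylation of Luciferin-PPXE, 25 uM (its KM). NADPH-driven reaction ran 60 min at RT after 10 min compound preincubation; data scaled to 57 uM ketoconazole as 100% inhibition.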
# [15] = Cellular Toxicity (caspase-3) SHSY5Y (AID 657); settings: SH-SY5Y caspase-3 activation, DMSO zero, 10 µM staurosporine = 100%; at 91.7 µM (top of the series);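 also: cells exposed to compound for 16 hours at 37 °C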
# Procedure, shortened: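 SH-SY5Y human neuroblastoma cells (1500/well) were treated with compounds for 16 h at 37 °C, then Caspase-Glo 3/7 luminescence was read after 1 h at room temperature. Data normalized to DMSO and 10 uM staurosporine; AC50 from Hill fits.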
# [16] = Confirmation and Secondary Assay for Modulators of Hemoglobin Beta Chain Splicing at IVS2 654 locus (AID 910);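 also: HeLa cells stably carrying EGFP split by mutant beta-globin IVS2-654 intron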;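 also: potency is read from the fitted curve at half-maximal effect; potency of activators that raise GFP signal by restoring correct splicing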
# Procedure, shortened: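 HeLa cells stably expressing EGFP interrupted by β-globin IVS2-654 intron, seeded overnight in Opti-MEM/2% FCS, then treated 2 days at 37 °C. Restored splicing read as total peak GFP intensity per well by laser scanning cytometry (488 nm excitation, 500–520 nm emission); 500 nM antisense PNA as control.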
# [17] = Confirmation and Secondary Assay for Modulators of Hemoglobin Beta Chain Splicing at IVS2 705 locus (AID 930); also: potency is read from the fitted curve at half-maximal effect;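 as to activation: HeLa cells stably expressing the EGFP-705 splicing reporter; % of control where 0% means no effect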
# Procedure, shortened: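 HeLa cells stably carrying EGFP interrupted by mutant beta-globin IVS2-705 intron (CMV-driven) were seeded at 500 cells/well, treated next day with compound for 2 days at 37C; corrected splicing restores EGFP, read as total peak GFP intensity per well.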
# Tags tell the direction and shape of the fitted curve or compound fluorescence and quenching.
compound,measurement,setting,value
COCCCCC(=NOCCN)c1ccc(C(F)(F)F)cc1,Potency,[1],"inconclusive: 5.62 µM [inhibitor, partial curve, poor fit]"
same,Potency,[2],"inconclusive: 15.8 µM [activator, single point] and inconclusive: 7.94 µM [activator, partial curve]"
same,Potency,[3],inactive
same,"activity change, negative = inhibition",[4],inconclusive: -24.8% [phenotype inactive]
O=C1c2ccccc2-c2n[nH]c3cccc1c23,Potency,[5],"inconclusive: 25.1 µM [inhibitor, partial curve]"
same,"activity change, negative = inhibition",[1],inconclusive: 17.4%
same,Potency,[3],"inconclusive: 5.01 µM [activator, partial curve]"
O=C(NCCO[N+](=O)[O-])c1cccnc1,Potency,[6],active: 2 µM
CC(COc1ccccc1)N(CCCl)Cc1ccccc1 (stereo not drawn),Potency,[7],"inconclusive: 31.6 µM [rising, single point]"
same,caspase-3 activation,[8],inconclusive: 36%
same,Potency,[9],active: 31.6 µM
same,caspase-3 activation,[10],inconclusive: 31.9%
same,caspase-3 activation,[11],inconclusive: 35.8%
COc1nccc(-c2c(-c3ccc(F)cc3)ncn2C2CCC(O)CC2)n1 (stereo not drawn),Potency,[6],"inconclusive: 7.94 µM [inhibitor, full curve, poor fit]"
same,Potency,[12],"inconclusive: 7.94 µM [inhibitor, full curve]"
CN1C(C(=O)Nc2ccccn2)=C(O)c2ccccc2S1(=O)=O,Potency,[6],active: 3.98 µM
same,Potency,[1],"inconclusive: 0.01 µM [inhibitor, full curve, poor fit]"
same,"activity change, negative = inhibition",[4],inconclusive: -11.5% [phenotype inactive]
O=c1[nH]cnc2c1ncn2[C@H]1CC[C@@H](CO)O1,caspase-3 activation,[11],inactive: 5.48%
Cc1noc(NS(=O)(=O)c2ccc(N)cc2)c1C,Potency,[6],inactive
same,activation,[2],inactive: -20.7% and inactive: -0.198%
O=C1N(c2ccccc2)c2ccccc2C1(Cc1ccncc1)Cc1ccncc1,Potency,[13],"inconclusive: 7.94 µM [inhibitor, full curve]"
same,"activity change, negative = inhibition",[1],inconclusive: -32.1%
same,Potency,[3],"inconclusive: 1 µM [inhibitor, partial curve]"
O=C(CCc1ccc(O)cc1)c1c(O)cc(O)cc1O,Potency,[14],active: 2 µM and active: 15.8 µM
same,"activity change, negative = inhibition",[1],inconclusive: -10.8%
same,"activity change, negative = inhibition",[4],inconclusive: 4.29% [phenotype inactive]
Nc1nc(OCc2ccccc2)c2[nH]cnc2n1,Potency,[13],"inconclusive: 0.501 µM [inhibitor, full curve, poor fit]"
same,"activity change, negative = inhibition",[4],inconclusive: -18.5% [phenotype inactive]
NS(=O)(=O)c1cc2c(cc1Cl)NCNS2(=O)=O,caspase-3 activation,[15],inactive: -1.2%
same,"activity change, negative = inhibition",[4],inconclusive: -22.8% [phenotype inactive]
Cc1nc2n(c(=O)c1CCN1CCC(c3noc4cc(F)ccc34)CC1)CCCC2,Potency,[13],active: 7.94 µM
same,Potency,[1],inactive
same,Potency,[12],inconclusive: 1.58 µM
same,Potency,[3],inactive
same,"activity change, negative = inhibition",[4],inconclusive: -21.2% [phenotype inactive]
CCc1nc(N)nc(N)c1-c1ccc(Cl)cc1,Potency,[13],inconclusive: 7.94 µM
CN(C)C(=O)C(CCN1CCC(O)(c2ccc(Cl)cc2)CC1)(c1ccccc1)c1ccccc1,"activity change, negative = inhibition",[1],inconclusive: 43.5%
CNCCCC12CCC(c3ccccc31)c1ccccc12,"activity change, negative = inhibition",[1],inconclusive: -40.2%
Clc1ccccc1C(c1ccccc1)(c1ccccc1)n1ccnc1,Potency,[6],active: 1 µM and active: 316 nM
same,Potency,[13],"inconclusive: 39.8 µM [inhibitor, single point]"
same,Potency,[1],"inconclusive: 20 µM [cytotoxic, side channel, single point]"
same,Potency,[12],"inconclusive: 7.94 µM [inhibitor, partial curve, poor fit]"
same,Potency,[3],"inconclusive: 12.6 µM [inhibitor, partial curve]"
same,Potency,[4],active: 12.6 µM
NCCCCCC(=O)O,Potency,[14],inactive
same,"activity change, negative = inhibition",[4],inconclusive: -12.3% [phenotype inactive]
OCCN(CCO)c1nc(N2CCCCC2)c2nc(N(CCO)CCO)nc(N3CCCCC3)c2n1,Potency,[1],"inconclusive: 11.2 µM [fluorescent, side channel, partial curve]"
same,Potency,[2],"inconclusive: 25.1 µM [fluorescent, side channel, single point]"
same,activation,[2],inconclusive: 38.7% and inconclusive: 27.5%
same,Potency,[3],"inconclusive: 10 µM [inhibitor, partial curve]"
CN1CCC(=C2c3ccccc3C=Cc3ccccc32)CC1,Potency,[13],active: 2.51 µM and active: 3.98 µM
same,"activity change, negative = inhibition",[1],inconclusive: 25.9%
same,"activity change, negative = inhibition",[4],inconclusive: -28.6% [phenotype inactive]
Nc1nc2c(ncn2COCCO)c(=O)[nH]1,Potency,[14],inactive
same,Potency,[3],inactive
same,"activity change, negative = inhibition",[4],inconclusive: -18.7% [phenotype inactive]
c1cc(-c2sc(-c3ccncc3)c(-c3ccncc3)c2-c2ccncc2)ccn1,Potency,[6],active: 2 µM
same,Potency,[14],active: 316 nM
same,Potency,[13],"inconclusive: 3.16 µM [inhibitor, partial curve]"
same,activation,[2],inactive: -25.7%
NC(=O)OCC(COC(N)=O)c1ccccc1,Potency,[6],inactive
same,Potency,[13],inactive and active: 794 nM
same,Potency,[1],inactive
same,Potency,[12],inactive
same,"activity change, negative = inhibition",[4],inconclusive: -11.6% [phenotype inactive]
O=c1ccc2ccc(O)c(O)c2o1,Potency,[1],inactive
same,activation,[2],inconclusive: -85.5%
same,Potency,[3],"inconclusive: 12.6 µM [inhibitor, partial curve, poor fit]"
S=c1nc[nH]c2nc[nH]c12,Potency,[16],active: 3.16 µM
same,Potency,[17],active: 6.31 µM
O=C(NC(Cc1cc(=O)[nH]c2ccccc12)C(=O)O)c1ccc(Cl)cc1 (stereo not drawn),Potency,[16],inactive
CC1COc2c(N3CCN(C)CC3)c(F)cc3c(=O)c(C(=O)O)cn1c23 (stereo not drawn),Potency,[17],inactive
